Source: the BET-seq Pho4 binding data (Le et al. 2018)
Some of the results follow. Values were computed here from the reads of four pooled replicates and scatter widely.

Molecular target: T1, Pho4 (S. cerevisiae) (UniProt P07270)
T1 sequence: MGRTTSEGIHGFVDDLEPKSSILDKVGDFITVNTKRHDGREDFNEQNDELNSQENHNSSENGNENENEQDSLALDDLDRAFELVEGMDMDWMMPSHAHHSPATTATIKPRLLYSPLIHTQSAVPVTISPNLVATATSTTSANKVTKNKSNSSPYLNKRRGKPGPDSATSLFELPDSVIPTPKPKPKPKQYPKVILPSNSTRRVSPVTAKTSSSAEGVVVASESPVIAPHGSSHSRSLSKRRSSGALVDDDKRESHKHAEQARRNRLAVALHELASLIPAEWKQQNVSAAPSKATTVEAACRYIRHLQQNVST
Assay: relative binding free energy (BET-seq); higher = weaker binding
Details: reference: library average

Sequence	relative binding free energy [kcal/mol]
AGGTTCACGTGAAGAG	0.23
GTGAGCACGTGGCTAG	-0.16
ATTGCCACGTGAATGG	0.1
GGTTGCACGTGCTATG	-0.08
TGTATCACGTGGGGCT	-0.05
TTTTGCACGTGCGATG	0.03
TGGATCACGTGATCTT	0.25
TTGAGCACGTGTTAGG	-0.1
TGAATCACGTGAGGGT	0.35
TTGTGCACGTGGATTC	0.08
CTGAGCACGTGCGGGT	-0.11
GATATCACGTGATTTG	0.38
TTAGGCACGTGCGCTA	-0.11
ACGTACACGTGGGTTG	-0.16
ACTGTCACGTGTTGGT	0.07
ATTTCCACGTGGGGGA	-0.21
TAATTCACGTGAGGGT	0.45
TTAGGCACGTGTGGTC	0.03
ATGAGCACGTGATTAT	0
AGTCACACGTGATGGG	0.05
ACGTGCACGTGGTGCG	-0.22
TTCGGCACGTGAGTTT	0.22
GAACTCACGTGGTGGG	0.17
TGTTTCACGTGGGTCT	0.05
ATATGCACGTGTTCGG	0
TCGTTCACGTGAGGAG	0.29

Sequence	relative binding free energy [kcal/mol]
TGGATCACGTGTTGTT	0.13
TATTGCACGTGTTCGA	0
AAAGTCACGTGTGGTA	0.05
AAACGCACGTGGGGGT	-0.22
ATTAGCACGTGGATTG	-0.12
TGATACACGTGATTAG	0.23
TATTGCACGTGTTCTA	0
ATTATCACGTGTAGGT	0.16
GGGGTCACGTGTAAGG	0.26
TTGTTCACGTGGACTG	0.3
TGTATCACGTGGTGAA	0.11
TAGCTCACGTGGTTTT	0.09
TGGATCACGTGATAGC	0.34
AGATACACGTGTATTG	-0.03
TCGTCCACGTGGGCTT	0.16
CGTTTCACGTGGAGTG	0.23
TGCGGCACGTGATTAT	-0.14
GGATTCACGTGTTTAT	0.27
GGTATCACGTGTTATC	0.26
AGTTTCACGTGACTTG	0.29
TTGTACACGTGACGGG	0.19
GTTCTCACGTGTTTTT	0.27
GGTATCACGTGGATGA	0.05
GGGTACACGTGTGATT	0.22
GGGCTCACGTGATAGA	0.51
TTGTACACGTGCTATT	-0.12

Sequence	relative binding free energy [kcal/mol]
AATAGCACGTGGTGTG	-0.3
CTTAGCACGTGTTATT	-0.11
ACGGTCACGTGTGTCG	0.05
TAATTCACGTGACATT	0.37
ATTGACACGTGGGAGG	-0.11
GTGCTCACGTGGGTGG	0.22
GGTGTCACGTGGACCG	0.12
TGGTGCACGTGCGATA	-0.11
TAGAGCACGTGCAGGG	-0.16
TGCGGCACGTGTGGCT	-0.15
TGGTGCACGTGTTTTT	0.15
AGACGCACGTGAGAGG	0.15
GGGTGCACGTGGATGA	-0.01
TCATACACGTGTTATT	-0.03
GGTATCACGTGCAGGG	0.2
TGATTCACGTGCGGTT	0.4
AGGAACACGTGATTGG	0.17
GGGAGCACGTGAAATG	0.2
TGAGTCACGTGTTTGA	0.05
GGTCTCACGTGGCAGG	0.02
ACTTGCACGTGAGGGT	0.13
GGTAACACGTGCGAAG	0.24
CGTGTCACGTGGAAGT	0.12
ATTTTCACGTGGGGAC	0.35
TATAGCACGTGTGGTC	0.08
ACAATCACGTGGTGTG	-0.03

Sequence	relative binding free energy [kcal/mol]
ACTGGCACGTGCGTGA	0.03
TTCGTCACGTGTATAT	0.12
GTGGGCACGTGGACGT	-0.09
TTGTCCACGTGGTACT	0.03
TTTTACACGTGTTCAG	0.21
GAGATCACGTGCGTTT	0.23
GCGGACACGTGTGAGT	0.13
GTGGGCACGTGTACAG	-0.09
TCGAACACGTGTTGAG	0.13
TCCGTCACGTGTTTTT	0.24
TGTCACACGTGTAATT	0.33
GGTGGCACGTGGGGCC	-0.21
ATCAGCACGTGGTCGT	-0.12
GGCTCCACGTGGTGTG	-0.04
AAGGTCACGTGTTCAG	0.23
AAGTGCACGTGTGCGA	-0.08
GATGTCACGTGTATGT	0.17
AGGATCACGTGGATGC	0.15
GCTGTCACGTGTGTCG	0.11
AGGTACACGTGGATAA	0.32
TTATACACGTGTTGGT	0.13
ATAATCACGTGATTTT	0.2
AGGTTCACGTGGAGAG	0.29
GCAGGCACGTGGGTGG	-0.15
GTGGACACGTGAGTGT	0.33
AAAGGCACGTGGGGAG	-0.23

Sequence	relative binding free energy [kcal/mol]
TGAATCACGTGCGGAT	0.16
TGAGTCACGTGGCCGT	0.16
TCGTTCACGTGGGACG	0.21
CGTGGCACGTGTGCGT	-0.09
GTTAACACGTGTCTGT	-0.03
TCATGCACGTGGGGAT	-0.17
AATGTCACGTGGAGTT	0.2
GTTAACACGTGCTGGT	0.04
TTTTACACGTGCACGT	0.11
GGTGGCACGTGAGATT	0.24
AGTCACACGTGGTAAG	0.19
GCGGTCACGTGTGGGA	0.25
TTAGGCACGTGAGGCA	0.09
AGTGTCACGTGTTGGT	0.07
TCTATCACGTGGTAGG	0.13
TTGTGCACGTGTTATA	-0.06
GCATTCACGTGGGGTA	0.04
TGGCGCACGTGGGTGG	-0.13
AAGTTCACGTGATTAA	0.39
TGTTTCACGTGCTGCT	0.17
TCGGTCACGTGGTAAT	0.04
TGAGGCACGTGGCGGG	-0.2
GGTCGCACGTGTAGTC	0.06
TTGGTCACGTGGTGTA	0.1
TGGGGCACGTGCACGG	-0.09
AAGTTCACGTGGTGGA	0.23

Sequence	relative binding free energy [kcal/mol]
AAGGGCACGTGTATGA	-0.23
AGCTGCACGTGCGGTT	0.03
GTGCACACGTGATATG	0.24
TGGCTCACGTGAGTGT	0.36
GGTGACACGTGAATTA	0.4
TTTAACACGTGTGCGC	0.03
ATGTACACGTGTTGCT	-0.01
GATGTCACGTGGGCCT	-0.01
TTCTGCACGTGGGTTA	-0.11
ATGGGCACGTGTTCAT	-0.22
TACGACACGTGGGGGT	-0.06
TAGTACACGTGATCGG	0.04
GTGGCCACGTGGTGTG	-0.02
TGTAGCACGTGTCGAG	-0.04
GTGGGCACGTGGGCTA	-0.13
CGTAGCACGTGGAGAT	0.06
TGGGTCACGTGCGGTG	-0.03
TCGACCACGTGGTGGG	-0.04
GCGCGCACGTGTGTTG	-0.04
GTGTCCACGTGTGGGT	0.29
GAGTACACGTGGTCGT	0.2
AAGGGCACGTGGGTCT	-0.27
TTCTTCACGTGCAGGT	0.3
TGGCACACGTGATGTA	0.23
TATGTCACGTGTTCGT	0.1
TGCTGCACGTGTTCTG	-0.04

Sequence	relative binding free energy [kcal/mol]
GTCTTCACGTGGTTGT	0.31
TTTTTCACGTGACAAT	0.4
AGCGGCACGTGGTCGT	-0.27
GTATTCACGTGATGCG	0.18
TTATTCACGTGCTGTA	0.15
TACGTCACGTGTGAGA	0.17
GGATGCACGTGGTAGA	0
GTGTACACGTGACTGT	0.15
GGGGGCACGTGCTCGG	-0.18
TGTTACACGTGTCAGT	-0.04
GCGGTCACGTGCATGT	0.13
CGATACACGTGGGGGC	0.01
TCTGCCACGTGGGGTA	-0.23
GAAATCACGTGTGTTT	0.26
TACGCCACGTGTGTGT	-0.05
GGTTCCACGTGATGTG	0.29
AATTGCACGTGTACTT	-0.04
ATTTCCACGTGTGTGT	0.04
AGGAACACGTGGTAGT	-0.05
GTGTTCACGTGACGTC	0.44
AACTTCACGTGGGGCG	0.16
GTGTCCACGTGGGAGT	-0.05
TTGAGCACGTGACGTT	0.06
TTGTTCACGTGATATA	0.45
GCTTTCACGTGGGGGT	0.09
CATTACACGTGGAGTT	0.21

Sequence	relative binding free energy [kcal/mol]
TGATTCACGTGTCGTT	0.29
CGAGTCACGTGGGTCG	0.09
TTGATCACGTGCTGAG	0.02
TAGTACACGTGCTTAT	0.15
GATCGCACGTGGTAGG	-0.1
GAGCGCACGTGGGTGC	-0.19
TCCAGCACGTGGGGGG	-0.33
AGTTGCACGTGCCAGT	0.08
ACTTCCACGTGGGGTG	-0.02
TTATGCACGTGTAGTA	0.03
GTTGTCACGTGGCATA	0.1
AGGCGCACGTGTGTGT	-0.16
GGTTGCACGTGGACTT	0.16
ATGAGCACGTGGTCTG	-0.19
CGTGTCACGTGGCTTA	-0.04
ATCGTCACGTGTAAAT	0.3
GTGAACACGTGGTATT	-0.02
TGTATCACGTGTGGAA	0.15
TCGTTCACGTGGGGCT	0.03
TTACTCACGTGTTGAG	0.22
AGAGTCACGTGAAGGA	0.23
CTGTGCACGTGGGGCA	-0.28
GGAGACACGTGTGTGT	0.12
GGCGGCACGTGAGTGC	0.11
TGTTTCACGTGCGTAT	0.15
TGGGGCACGTGGTAAT	-0.11

Sequence	relative binding free energy [kcal/mol]
TGTTACACGTGAGTCT	0.22
CTTGTCACGTGGTATT	-0.12
GGTTTCACGTGCGGGC	0.28
TGTCTCACGTGTTTTC	0.33
CGCTGCACGTGTAGGT	0
GGAGTCACGTGGCGTT	0.04
TTATACACGTGGAGGC	0.13
TGCTACACGTGGTTAG	0.04
TTGTACACGTGCAATT	0.03
TGAATCACGTGGTCTG	0.08
TTTGCCACGTGATGGA	0.12
TATCTCACGTGGGCTT	0.11
ATATTCACGTGCTGGG	0.16
GGGTACACGTGTAATA	0.17
GTTGTCACGTGCGTGT	0.1
CAGCGCACGTGGAGGG	-0.21
TTGGACACGTGGCAGG	-0.06
TGGGTCACGTGAAGTT	0.39
CCGGGCACGTGTTTGG	-0.1
ATTATCACGTGGGCTT	-0.04
TCTGACACGTGGGTAG	-0.14
TACGTCACGTGTATGA	0.08
